# According to ChEMBL document CHEMBL4888484, “Replenishing the malaria drug discovery pipeline: Screening and hit evaluation of the MMV Hit Generation Library 1 (HGL1) against asexual blood stage Plasmodium falciparum ,using a nano luciferase reporter read-out” (2022):
# The campaign covered roughly 4,800 compounds. About 410 (8.5%) showed an effect of 50% or more. This is one part of the list.
# System: Plasmodium falciparum
# Assay: Confirmatory screen in NF54 pLDH assay, in single point, at 2uM, 72h
# Format: functional, Erythrocyte
# Conditions: timepoint 72 hour
row,Structure (SMILES),% Inhibition
1,Cc1ccccc1CNC(=O)CN(C(C)C)C1CCOCC1,28%
2,COc1ccccc1N1CCN(CCC(=O)NC2CCCCC2)CC1,11%
3,Cc1ccc(S(=O)(=O)Nc2c(S(=O)(=O)c3ccc(C)cc3)c3nc4ccccc4nc3n2C[C@H]2CCCO2)cc1,8%
4,CC(=O)Nn1ccc2nc(N3CCOCC3)ncc2c1=O,3%
5,Cc1ccn(-c2cc(-c3cccs3)cc(-n3ccc(C)n3)n2)n1,3%
6,Cc1noc(Cn2c(=O)c3cc4c(cc3n(CC(=O)Nc3cccc(Cl)c3)c2=O)OCO4)n1,7%
7,CC1=NN(S(=O)(=O)c2ccc(F)cc2)C(=O)c2ccccc2O1,5%
8,Cc1ccc(C(=O)N[C@@H](C)CCc2ccccc2)cc1S(=O)(=O)N1CCN(C)CC1,-22%
9,O=c1[nH]c2cc3c(cc2c(=O)n1CCc1nc(-c2ccccc2Br)no1)OCO3,8%
10,CC[C@H]1Cn2c(C(=O)N3CCN(c4ccccn4)CC3)cc3c(Cl)ccc(c32)O1,-6%
11,COC(=O)C1=C(C(=O)OC)SC(=C2C(=S)C(C)(C)N(C(=O)c3cccnc3)c3c(C)cc(C)cc32)S1,0%
12,O=C(COc1ccc(Cl)cc1)N1CC(n2cnnc2C2CC2)C1,-4%
13,Cc1nc2cc3c(cc2n1CC(=O)Nc1ccc(Cl)cc1)OCCCO3,15%
14,Cc1ccccc1[C@H]1CCN(c2ccc(NC(=O)C3CCCC3)c(C(=O)O)c2)C1,-3%
15,O=C(Nc1nc2ccc(F)cc2s1)c1cccc2c(Br)cccc12,-9%
16,Cc1cc(OCCOCCNCCN)cc(C(C)C)c1,25%
17,O=C(O)[C@H](Cc1ccccc1)N(C(=O)c1ccncc1)C1CC1,-3%
18,Cn1nc2n(c1=O)CCN(S(=O)(=O)c1cccc3cccnc13)CC2,-5%
19,CCN(C)S(=O)(=O)N1CCN(Cc2c(C)nc3n2CCCC3)CC1,-7%
20,c1cnc(N2CCOCC2)c(CNc2cnc3ccccc3n2)c1,-7%
21,CC(=O)c1cn(CC(=O)N2CCNC(=O)C2)c2ccccc12,6%
22,CN(Cc1nc2ccccc2c(=O)[nH]1)C(=O)c1ccc(N2CCCC2=O)cc1,4%

row,Structure (SMILES),% Inhibition
1,O=C(c1cncc(Br)c1)N1CC[C@H](c2nc(C3CCOCC3)no2)C1,10%
2,C[C@H]1CN(C(=O)CNc2ccccc2-c2ccccc2)CCO1,-20%
3,COc1ccc([C@H](C)NC(=O)/C(=C/c2ccccc2Cl)c2ccccc2)cc1,-28%
4,Cc1cc(OC(F)F)c(C(=O)NC(C)CCC2CCCO2)s1 (stereo not given),-6%
5,Cc1nn(C)c(C)c1CCCN[C@@H](C)c1cccc(O)c1,4%
6,CC1CC1C(=O)Nc1cc(F)ccc1NC(=O)c1ccccn1 (stereo not given),7%
7,CCN(CC)c1nc(-c2ccccc2)c(C#N)c(N)c1C#N,12%
8,COc1cc(Cl)cc2c1OC=CC(C(=O)Nc1ccc(C)cc1)=C2,-2%
9,C[C@@H](C(=O)Nc1cccc2ccccc12)c1ccc(-c2ccccc2)c(F)c1,-17%
10,Cc1c(Cl)c(C(F)(F)F)nn1[C@@H](C)C(=O)NC1CCN(C(C)C)CC1,8%
11,CC(=O)c1cccc(S(=O)(=O)N2CCN(C(=O)c3ccc4c(c3)CCC4)CC2)c1,9%
12,COc1ccccc1CNC(=O)c1cn(CC2(O)CCN(Cc3ccccc3)CC2)nn1,12%
13,CCN(C(=O)CN1C(=O)C(c2ccccc2)=NC12CCC(C)CC2)c1ccccc1 (stereo not given),-6%
14,Cn1cccc1C(=O)NC1CCN(c2ccc(Cl)c(C#N)n2)CC1,13%
15,Cc1ccc(NC(=O)c2cc3nccc(-c4ccc(F)cc4)n3n2)nc1,4%
16,CCc1nnc(COC(=O)c2csc(NC)n2)o1,9%
17,Cc1ccc(C)n1-c1ccc(Cl)c(C(=O)N[C@H]2CCN(CC(F)(F)F)C2)c1,-1%
18,Clc1ccccc1CNCC#Cc1ccccc1,6%
19,Cc1cc([C@@H](C)C(=O)NC2(C(=O)O)CCCCC2)c(C)o1,-25%
20,COc1cc(Cl)cc2c1OC=CC(C(=O)NC(c1ccccc1)c1ccccc1)=C2,3%
21,COc1ccc(CNC(=O)c2cc(C(=O)C3CC3)c[nH]2)cc1,-10%
22,Cc1nnc(NC(=O)c2cc(N3CCCC3)ncn2)s1,-10%

row,Structure (SMILES),% Inhibition
1,Cc1noc(C)c1NC(=O)c1cc(-c2cccs2)nc2c1c(C)nn2C,-7%
2,Nc1c(-c2ccccc2)nsc1C(=O)NCc1ccc(F)cc1,9%
3,c1ccc(-c2cn3c(n2)c(-c2ccc4ccccc4n2)cc2ccccc23)cc1,43%
4,Oc1c([C@@H](c2ccccn2)N2CCCC2)ccc2cccnc12,48%
5,CC1=C(C(=O)N2CCN(C)CC2)[C@H](c2ccccc2C)n2ncnc2N1,8%
6,Cc1cc(S(=O)(=O)N(C)C[C@H](O)C(F)(F)F)sc1C,-3%
7,Clc1ccc(CNCCc2c[nH]cn2)cc1,-1%
8,CCO[C@@H](C)C(=O)Nc1n[nH]c(Cc2cccc(F)c2)n1,8%
9,O=C1CN(C(=O)Cc2c(F)cccc2Cl)C2(CCCC2)CN1,-13%
10,Cc1ccccc1CNC(=O)[C@H]1CCCN(c2nc3cccnc3n(Cc3ccccc3)c2=O)C1,-6%
11,c1ccc(-c2c[nH]nc2N2CCOCC2)cc1,18%
12,COC(=O)c1ccccc1N(C)S(=O)(=O)c1cc2c(cc1C)OCC(=O)N2,-5%
13,Cc1ccc(F)c(N2CCC(NS(=O)(=O)c3ccc(F)cc3Br)CC2)c1,9%
14,Cc1ccc2nc3c(c(N)c2c1)CCCCN3C,-20%
15,CCc1cnccc1[C@H](C)NC(=O)CN1C(=O)Cc2ccccc21,10%
16,N#Cc1ccc(NC(=O)[C@](F)(OC(F)(F)C(F)(F)C(F)(F)F)C(F)(F)F)cc1,-2%
17,C=CCNC(=O)N1CCC(c2nc(C)ccc2C(=O)N2CCCC2)CC1,7%
18,COc1cc(CN(CC(N)=O)C(C)C)ccc1C,9%
19,C=CCOC(=S)NC(=O)Cc1ccccc1Cl,11%
20,CNC(=O)N1CCN(c2cc(C)nc(C3CC3)n2)CC1,-21%
21,Cc1coc(-c2ccc(C)c(NC(=O)CCN3C(=O)CCC3=O)c2)n1,-28%
